Residue numbers refer to the chain shown, from its start. The list shows a part of the results.
T1: RBFOX1 RRM RbFoxmut (Fox-RRM*) (Homo sapiens, UniProt Q9NWB1 109-208, R118D;E147R;N151S;E152T)
T1 sequence: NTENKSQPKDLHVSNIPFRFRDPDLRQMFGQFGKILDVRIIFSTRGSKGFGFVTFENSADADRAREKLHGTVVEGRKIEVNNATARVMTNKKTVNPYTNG

B1: AUAAUCG (DNA:RNA)
RNA: GGGAGACCGGAAUUCAGAUUGUCCAUAAUCGUUAAAUCCCGUCGUAGCCACCA
DNA 1: CAATCTGAATTCCGGTCTCCC
DNA 2: TGGTGGCTACGACGGGATT
B2: CAUUAAG (DNA:RNA)
RNA: B1 RNA with A25C, U26A, A27U, A28U, U29A, C30A
DNA 1: CAATCTGAATTCCGGTCTCCC
DNA 2: TGGTGGCTACGACGGGATT
B3: CACAAGG (DNA:RNA)
RNA: B1 RNA with A25C, U26A, A27C, U29A, C30G
DNA 1: CAATCTGAATTCCGGTCTCCC
DNA 2: TGGTGGCTACGACGGGATT
B4: CUUCUAC (DNA:RNA)
RNA: B1 RNA with A25C, A27U, A28C, C30A, G31C
DNA 1: CAATCTGAATTCCGGTCTCCC
DNA 2: TGGTGGCTACGACGGGATT
B5: UCUUGCC (DNA:RNA)
RNA: B1 RNA with A25U, U26C, A27U, A28U, U29G, G31C
DNA 1: CAATCTGAATTCCGGTCTCCC
DNA 2: TGGTGGCTACGACGGGATT
B6: AAAUAAG (DNA:RNA)
RNA: B1 RNA with U26A, A28U, U29A, C30A
DNA 1: CAATCTGAATTCCGGTCTCCC
DNA 2: TGGTGGCTACGACGGGATT
B7: GUCUCUC (DNA:RNA)
RNA: B1 RNA with A25G, A27C, A28U, U29C, C30U, G31C
DNA 1: CAATCTGAATTCCGGTCTCCC
DNA 2: TGGTGGCTACGACGGGATT
B8: ACAGUCU (DNA:RNA)
RNA: B1 RNA with U26C, A28G, G31U
DNA 1: CAATCTGAATTCCGGTCTCCC
DNA 2: TGGTGGCTACGACGGGATT
B9: AGUGUUA (DNA:RNA)
RNA: B1 RNA with U26G, A27U, A28G, C30U, G31A
DNA 1: CAATCTGAATTCCGGTCTCCC
DNA 2: TGGTGGCTACGACGGGATT
B10: UGCGACG (DNA:RNA)
RNA: B1 RNA with A25U, U26G, A27C, A28G, U29A
DNA 1: CAATCTGAATTCCGGTCTCCC
DNA 2: TGGTGGCTACGACGGGATT
B11: GGAGGAA (DNA:RNA)
RNA: B1 RNA with A25G, U26G, A28G, U29G, C30A, G31A
DNA 1: CAATCTGAATTCCGGTCTCCC
DNA 2: TGGTGGCTACGACGGGATT
B12: UAUCUAU (DNA:RNA)
RNA: B1 RNA with A25U, U26A, A27U, A28C, C30A, G31U
DNA 1: CAATCTGAATTCCGGTCTCCC
DNA 2: TGGTGGCTACGACGGGATT
B13: GAUCUCG (DNA:RNA)
RNA: B1 RNA with A25G, U26A, A27U, A28C
DNA 1: CAATCTGAATTCCGGTCTCCC
DNA 2: TGGTGGCTACGACGGGATT
B14: GUUUUAU (DNA:RNA)
RNA: B1 RNA with A25G, A27U, A28U, C30A, G31U
DNA 1: CAATCTGAATTCCGGTCTCCC
DNA 2: TGGTGGCTACGACGGGATT
B15: GAGUCAA (DNA:RNA)
RNA: GGGAGACCGGAAUUCAGAUUGUCCGAGUCAAUUAAAUCCCGUCGUAGCCACCA
DNA 1: CAATCTGAATTCCGGTCTCCC
DNA 2: TGGTGGCTACGACGGGATT
B16: GACUGUG (DNA:RNA)
RNA: B15 RNA with G27C, C29G, A30U, A31G
DNA 1: CAATCTGAATTCCGGTCTCCC
DNA 2: TGGTGGCTACGACGGGATT
B17: CUAAAGC (DNA:RNA)
RNA: B1 RNA with A25C, U29A, C30G, G31C
DNA 1: CAATCTGAATTCCGGTCTCCC
DNA 2: TGGTGGCTACGACGGGATT
B18: GCUACGG (DNA:RNA)
RNA: B1 RNA with A25G, U26C, A27U, U29C, C30G
DNA 1: CAATCTGAATTCCGGTCTCCC
DNA 2: TGGTGGCTACGACGGGATT
B19: UCCGAGC (DNA:RNA)
RNA: GGGAGACCGGAAUUCAGAUUGUCCUCCGAGCUUAAAUCCCGUCGUAGCCACCA
DNA 1: CAATCTGAATTCCGGTCTCCC
DNA 2: TGGTGGCTACGACGGGATT
B20: CCGCCUC (DNA:RNA)
RNA: B15 RNA with G25C, A26C, U28C, A30U, A31C
DNA 1: CAATCTGAATTCCGGTCTCCC
DNA 2: TGGTGGCTACGACGGGATT

What follows are binders tested against T1, RBFOX1 RRM RbFoxmut (Fox-RRM*) (assay: EMSA; HiTS-Eq, 1 nM pool, 10 min; buffer printed only for the single-RNA assays: 10 mM Tris pH 7.5, 150 mM NaCl, 3.4 mM EDTA, 0.001% NP-40, 30 C). Conditions: tags: His6 N-terminal (pET28a); label: 5' 32P.
Method in brief: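 Relative association constants, normalised to the cognate motif, were derived by comparing read counts of each RNA species with those of the control reaction. The RNA sequenced was the free fraction, separated by 8% native PAGE after a 10 min equilibration in 50 µL of 1 nM 5′-radiolabelled RNA (7 randomized nucleotides) with increasing concentrations of purified wild-type or mutant RbFox RRM.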

Binder	binding signal
B1	0.0874 KA relative to UGCAUGU
B2	0.138 KA relative to UGCAUGU
B3	0.0768 KA relative to UGCAUGU
B4	0.0842 KA relative to UGCAUGU
B5	0.318 KA relative to UGCAUGU
B6	0.115 KA relative to UGCAUGU
B7	0.0543 KA relative to UGCAUGU
B8	0.0639 KA relative to UGCAUGU
B9	0.149 KA relative to UGCAUGU
B10	0.136 KA relative to UGCAUGU
B11	0.093 KA relative to UGCAUGU
B12	0.101 KA relative to UGCAUGU
B13	0.102 KA relative to UGCAUGU
B14	0.114 KA relative to UGCAUGU
B15	0.104 KA relative to UGCAUGU
B16	0.21 KA relative to UGCAUGU
B17	0.0592 KA relative to UGCAUGU
B18	0.0964 KA relative to UGCAUGU
B19	0.111 KA relative to UGCAUGU
B20	0.0617 KA relative to UGCAUGU

From publication PMC9911399, “Two distinct binding modes provide the RNA-binding protein RbFox with extraordinary sequence specificity”
